A lower IC50 marks a more sensitive line; a limit (>, <) means that the fit lies beyond the doses tested. The AUC spans the tested range (256-fold, ending at the top dose) of the same fit; values near 1 show little effect. Where the top dose is marked as inferred, it comes from the curve model; the source does not state it.
What follows are cell lines tested with CCCCCCCCCCCC1=C(O)C(=O)C=C(O)C1=O [Embelin] (assay: Viability of human cancer cell lines after 72 h of drug (GDSC screen)). Details: top dose 32 µM; top dose inferred.
Procedure: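 Human cancer cell lines in 384-well plates, medium with 10% serum, drug for 72 h over a 256-fold dose range (nine 2-fold or five 4-fold steps up to the top dose). Adherent lines were fixed and stained with the nucleic acid dye Syto60, suspension lines read with resazurin; signal relative to control wells, capped at 0 and 100%. One two-parameter sigmoid per drug and line, fitted in a mixed model over all curves with the slope shared within a line.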
In the case of MRK-nu-1 (breast, suspension), the AUC is reported as 0.799 and the IC50 is reported as 13.9 µM. With MS751 (cervix, adherent) the AUC was 0.888 and the IC50 was 31.4 µM. “MS-1 (small cell lung carcinoma, suspension)” was tested, and the AUC was 0.907 and the IC50 was > 32 µM. For MSTO-211H (mesothelioma, adherent), the AUC was 0.919 and the IC50 was > 32 µM. MV-4-11 (leukaemia, suspension) was tested, and the AUC was 0.883 and the IC50 was 23.8 µM. With MY-M12 (leukaemia, suspension) the AUC was 0.769 and the IC50 was 13.7 µM. MZ1-PC (pancreas, adherent) showed an AUC of 0.675 and an IC50 of 6.96 µM. MZ2-MEL (melanoma, adherent) gave an AUC of 0.686 and an IC50 of 7.34 µM. For MZ7-mel (melanoma, adherent), the AUC was 0.735 and the IC50 was 9.65 µM. Mewo (melanoma, adherent) showed an AUC of 0.81 and an IC50 of 21 µM. With Mo-T (hairy cell leukaemia, suspension) the AUC was 0.957 and the IC50 was > 32 µM. With NALM-6 (B-cell leukaemia, suspension) the AUC was 0.599 and the IC50 was 3.57 µM. In the case of NAMALWA (Burkitt lymphoma, suspension), the AUC is reported as 0.743 and the IC50 is reported as 8.64 µM. In the case of NB1 (neuroblastoma, semi-adherent), the AUC is reported as 0.847 and the IC50 is reported as 27.4 µM. NB5 (neuroblastoma, adherent) was tested, and the AUC was 0.856 and the IC50 was 26.4 µM. Work on NB6 (neuroblastoma, adherent) yielded an AUC of 0.758 and an IC50 of 13.4 µM. Work on NB7 (neuroblastoma, adherent) yielded an AUC of 0.784 and an IC50 of 14.3 µM. In the case of NB10 (neuroblastoma, adherent), the AUC is reported as 0.904 and the IC50 is reported as > 32 µM. NB12 (neuroblastoma, adherent) gave an AUC of 0.709 and an IC50 of 9.66 µM. In the case of NB13 (neuroblastoma, adherent), the AUC is reported as 0.807 and the IC50 is reported as 14.2 µM. NB14 (neuroblastoma, adherent) showed an AUC of 0.692 and an IC50 of 6.65 µM. NB69 (neuroblastoma, adherent) was tested, and the AUC was 0.894 and the IC50 was 31 µM. NB(TU)1-10 (neuroblastoma, adherent) showed an AUC of 0.796 and an IC50 of 12.8 µM. With “NB-4 (acute myeloid leukaemia, suspension)” the AUC was 0.691 and the IC50 was 6.1 µM. NCI-H23 (lung adenocarcinoma, adherent) was tested, and the AUC was 0.94 and the IC50 was > 32 µM. With NCI-H28 (mesothelioma, adherent) the AUC was 0.833 and the IC50 was 30.5 µM. With “NCI-H64 (small cell lung carcinoma, suspension)” the AUC was 0.958 and the IC50 was > 32 µM. For “NCI-H69 (small cell lung carcinoma, suspension)”, the AUC was 0.908 and the IC50 was > 32 µM. For “NCI-H82 (small cell lung carcinoma, suspension)”, the AUC was 0.919 and the IC50 was > 32 µM. For “NCI-H187 (small cell lung carcinoma, suspension)”, the AUC was 0.944 and the IC50 was > 32 µM. “NCI-H196 (small cell lung carcinoma, adherent)” showed an AUC of 0.815 and an IC50 of 18.6 µM. “NCI-H209 (small cell lung carcinoma, suspension)” was tested, and the AUC was 0.875 and the IC50 was > 32 µM. “NCI-H211 (small cell lung carcinoma, adherent)” was tested, and the AUC was 0.92 and the IC50 was > 32 µM. In the case of “NCI-H226 (lung squamous cell carcinoma, adherent)”, the AUC is reported as 0.822 and the IC50 is reported as 20 µM. With “NCI-H292 (lung adenocarcinoma, adherent)” the AUC was 0.851 and the IC50 was > 32 µM. “NCI-H322M (lung adenocarcinoma, suspension)” was tested, and the AUC was 0.986 and the IC50 was > 32 µM. In the case of “NCI-H345 (small cell lung carcinoma, suspension)”, the AUC is reported as 0.973 and the IC50 is reported as > 32 µM. Work on “NCI-H358 (lung adenocarcinoma, adherent)” yielded an AUC of 0.78 and an IC50 of 14.8 µM. For “NCI-H441 (lung adenocarcinoma, adherent)”, the AUC was 0.676 and the IC50 was 7.63 µM.

From the supplement of paper PMC4967469
